Measured values reported in publication PMC4472343.
These are yes or no findings as the source states them, for the method shown. In cells and extracts the contact can be indirect. Some results given as binding are weak or reduced against the parent protein; the word gives no strength.

The chains behind the UniProt entries cited, without tags or fusion partners. Where a name states a change or a piece, a line headed by the entry shows the natural chain unless it says otherwise. Residues count along the entry.
UniProt P60615, residues 22-95: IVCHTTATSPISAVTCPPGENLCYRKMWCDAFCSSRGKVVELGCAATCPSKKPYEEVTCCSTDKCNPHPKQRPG
UniProt P49582, residues 23-502: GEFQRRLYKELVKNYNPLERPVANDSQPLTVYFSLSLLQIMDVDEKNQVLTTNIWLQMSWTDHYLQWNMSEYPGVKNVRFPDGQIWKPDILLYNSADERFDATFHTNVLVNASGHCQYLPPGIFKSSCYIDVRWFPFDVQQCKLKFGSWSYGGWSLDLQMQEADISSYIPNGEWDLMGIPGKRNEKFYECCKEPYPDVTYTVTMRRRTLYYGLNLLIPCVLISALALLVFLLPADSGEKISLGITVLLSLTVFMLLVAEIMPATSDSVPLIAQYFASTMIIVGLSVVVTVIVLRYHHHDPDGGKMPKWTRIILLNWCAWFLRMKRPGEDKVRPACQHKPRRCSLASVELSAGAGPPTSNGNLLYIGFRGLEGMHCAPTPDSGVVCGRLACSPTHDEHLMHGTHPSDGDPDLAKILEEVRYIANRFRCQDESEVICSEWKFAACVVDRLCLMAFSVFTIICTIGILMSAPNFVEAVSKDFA
UniProt P36544, residues 23-502: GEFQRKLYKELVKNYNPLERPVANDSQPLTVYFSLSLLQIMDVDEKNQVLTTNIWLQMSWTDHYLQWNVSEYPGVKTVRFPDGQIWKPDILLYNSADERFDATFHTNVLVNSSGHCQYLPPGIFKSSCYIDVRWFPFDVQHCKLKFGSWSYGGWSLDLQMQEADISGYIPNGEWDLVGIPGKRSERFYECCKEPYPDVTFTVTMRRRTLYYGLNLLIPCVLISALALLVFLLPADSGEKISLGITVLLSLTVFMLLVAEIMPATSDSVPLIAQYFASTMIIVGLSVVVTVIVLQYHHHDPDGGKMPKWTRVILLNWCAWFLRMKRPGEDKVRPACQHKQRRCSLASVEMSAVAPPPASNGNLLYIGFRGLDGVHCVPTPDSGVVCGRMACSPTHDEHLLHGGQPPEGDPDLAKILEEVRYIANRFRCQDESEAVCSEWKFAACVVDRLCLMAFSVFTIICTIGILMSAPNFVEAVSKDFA
UniProt P43681, residues 27-627: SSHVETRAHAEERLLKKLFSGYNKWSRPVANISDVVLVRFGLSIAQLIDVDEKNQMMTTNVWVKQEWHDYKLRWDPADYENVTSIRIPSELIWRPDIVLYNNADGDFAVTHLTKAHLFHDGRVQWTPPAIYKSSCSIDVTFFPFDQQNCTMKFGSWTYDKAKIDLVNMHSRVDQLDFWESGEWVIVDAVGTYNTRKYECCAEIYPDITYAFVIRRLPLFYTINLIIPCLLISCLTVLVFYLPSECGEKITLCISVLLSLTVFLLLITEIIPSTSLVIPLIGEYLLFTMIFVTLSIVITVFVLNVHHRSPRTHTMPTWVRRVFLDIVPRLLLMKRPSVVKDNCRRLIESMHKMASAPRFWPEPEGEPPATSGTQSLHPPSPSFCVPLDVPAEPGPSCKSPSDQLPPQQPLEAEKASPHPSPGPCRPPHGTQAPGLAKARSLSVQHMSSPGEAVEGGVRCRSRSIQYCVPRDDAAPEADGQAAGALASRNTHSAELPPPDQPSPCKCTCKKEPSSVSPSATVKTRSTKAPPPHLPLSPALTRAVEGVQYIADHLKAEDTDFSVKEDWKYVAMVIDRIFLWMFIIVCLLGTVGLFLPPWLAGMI
UniProt O70174, residues 31-629: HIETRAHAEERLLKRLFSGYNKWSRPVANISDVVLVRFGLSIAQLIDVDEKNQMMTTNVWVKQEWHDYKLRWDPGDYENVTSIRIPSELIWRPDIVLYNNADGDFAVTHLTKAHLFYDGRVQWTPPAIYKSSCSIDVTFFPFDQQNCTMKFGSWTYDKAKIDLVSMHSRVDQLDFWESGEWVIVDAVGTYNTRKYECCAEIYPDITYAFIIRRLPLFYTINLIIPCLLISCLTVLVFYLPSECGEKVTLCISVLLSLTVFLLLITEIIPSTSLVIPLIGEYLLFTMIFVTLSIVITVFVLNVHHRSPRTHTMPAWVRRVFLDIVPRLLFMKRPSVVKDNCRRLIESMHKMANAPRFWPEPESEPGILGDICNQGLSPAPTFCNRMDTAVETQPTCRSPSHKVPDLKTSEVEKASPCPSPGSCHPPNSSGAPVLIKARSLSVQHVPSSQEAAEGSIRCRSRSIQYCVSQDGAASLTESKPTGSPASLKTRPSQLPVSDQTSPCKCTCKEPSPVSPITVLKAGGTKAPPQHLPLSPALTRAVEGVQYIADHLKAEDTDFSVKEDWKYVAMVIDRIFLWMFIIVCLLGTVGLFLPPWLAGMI
UniProt P17787, residues 26-502: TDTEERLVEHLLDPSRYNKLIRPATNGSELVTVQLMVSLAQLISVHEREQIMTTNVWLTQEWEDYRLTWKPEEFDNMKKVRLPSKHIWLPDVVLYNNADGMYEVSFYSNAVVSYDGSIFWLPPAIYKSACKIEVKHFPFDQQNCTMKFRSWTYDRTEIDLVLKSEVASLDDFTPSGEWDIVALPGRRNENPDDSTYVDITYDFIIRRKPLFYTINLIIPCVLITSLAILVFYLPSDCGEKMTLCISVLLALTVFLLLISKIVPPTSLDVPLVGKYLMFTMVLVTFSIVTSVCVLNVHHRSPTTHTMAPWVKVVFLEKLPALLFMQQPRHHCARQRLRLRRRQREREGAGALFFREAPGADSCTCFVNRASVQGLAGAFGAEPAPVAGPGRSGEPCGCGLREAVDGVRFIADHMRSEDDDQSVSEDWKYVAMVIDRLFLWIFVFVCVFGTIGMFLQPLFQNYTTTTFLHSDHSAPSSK
UniProt Q9ERK7: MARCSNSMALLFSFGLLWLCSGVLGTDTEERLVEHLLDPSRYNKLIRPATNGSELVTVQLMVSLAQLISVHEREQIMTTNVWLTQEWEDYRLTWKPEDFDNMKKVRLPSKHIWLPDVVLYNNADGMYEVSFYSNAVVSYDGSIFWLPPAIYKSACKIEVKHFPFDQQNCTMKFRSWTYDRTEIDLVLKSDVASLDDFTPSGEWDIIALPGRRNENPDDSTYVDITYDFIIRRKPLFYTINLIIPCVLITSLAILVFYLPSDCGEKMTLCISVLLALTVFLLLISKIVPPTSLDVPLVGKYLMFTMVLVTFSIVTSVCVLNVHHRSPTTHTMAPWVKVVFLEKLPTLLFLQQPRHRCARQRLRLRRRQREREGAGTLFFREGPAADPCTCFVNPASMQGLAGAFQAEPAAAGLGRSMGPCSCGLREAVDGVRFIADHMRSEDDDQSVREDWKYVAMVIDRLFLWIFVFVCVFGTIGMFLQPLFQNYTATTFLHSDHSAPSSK

Assays:
[1] = target: α-bungarotoxin (UniProt P60615); assay: pull-down; only the target purified
[2] = target: α7 nicotinic acetylcholine receptor subunit (mouse) (mouse (endogenous in cortex)) (UniProt P49582); assay: pull-down; α7-containing receptors isolated on α-Bgt beads from 2% Triton X-100 extract of cortex from wild-type mice; co-purified subunits detected by Western blot; washes with 1 M NaCl
[3] = target: α7 nicotinic acetylcholine receptor subunit (human) (human (endogenous in temporal cortex)) (UniProt P36544); assay: pull-down; α7-containing receptors isolated on α-Bgt beads from 2% Triton X-100 extract of human temporal cortex (two biopsies); co-purified subunits detected by Western blot
[4] = target: α7 nicotinic acetylcholine receptor subunit (mouse) (mouse (endogenous in cortex)) (UniProt P49582); assay: condition: only α7 and β2 from separate homogenates (β2-/- and α7-/- mice) mixed 1:1 after homogenisation; pull-down; α-Bgt beads with a 1:1 mixture of cortical homogenates from α7-/- and β2-/- mice (double the total protein); Western blot

| Substance | binding [1] | binding [2] | further results |
| --- | --- | --- | --- |
| α4 nicotinic acetylcholine receptor subunit (human) (from UniProt P43681 27-627) | no binding |  |  |
| α4 nicotinic acetylcholine receptor subunit (mouse) (from UniProt O70174 31-629) | no binding | no binding |  |
| α7 nicotinic acetylcholine receptor subunit (human) (from UniProt P36544 23-502) | binds |  |  |
| α7 nicotinic acetylcholine receptor subunit (mouse) (from UniProt P49582 23-502) | binds |  |  |
| β2 nicotinic acetylcholine receptor subunit (human) (from UniProt P17787 26-502) |  |  | binding [3]: binds |
| β2 nicotinic acetylcholine receptor subunit (mouse) (from UniProt Q9ERK7 26-501) |  | binds | binding [4]: no binding |
